From the supplement of paper PMC11417369 come the findings set out here.

The other results are listed elsewhere or left out.

The test relates to PfHDP1 homeodomain (GST-tagged). In words: gcPBM binding intensity (ln(normalized median fluorescence intensity)); higher = stronger DNA binding. The gist of the method: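 The highest Masliner-normalised natural-log median intensity across replicate spots of either probe orientation is reported as binding intensity. GST-tagged P. falciparum DNA-binding domains expressed in E. coli were applied for 1 h to an Agilent 4 × 180k array of primer-extended double-stranded 36-bp intergenic genomic probes plus negative controls, and bound protein was detected with Alexa488 anti-GST antibody and scanned at 488 nm.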
With “AACAGATATATATGTAGTACATGTTCTAGATATTTT [XGTACX_site1208]”, the “gcPBM binding intensity (ln)” value came out at 6.48.

For “AATAATTGTTAAAGGTGTACAATACGTATGTAAGAA [XGTACX_site1328]”, the “gcPBM binding intensity (ln)” value was determined as 7.32.

Take “TTGTTCTTTTTTTTTTTATTTTTTAATTTGAAAAGA [CACACA_negctrl_site209]”: the “gcPBM binding intensity (ln)” value amounted to 6.3.

Consider “AAAAAGAAAAAACGAAGTACAATTATAAGATTATAT [XGTACX_site410]”, for which the “gcPBM binding intensity (ln)” value is 6.25.

“GTACAGATAAATATTACACACATTTTCATTTTTAAC [CACACA_site5140]”: the “gcPBM binding intensity (ln)” value stood at 6.67.

On to “TATGTGCCAAGACACACACACATATTTATATTTATA [CACACA_site6360]”, for which the “gcPBM binding intensity (ln)” value worked out at 6.51.

In the case of “TATGAAAAATATCTTTGTACTTAGAAATATATACAC [XGTACX_site5393]”, the “gcPBM binding intensity (ln)” value came to 6.25.

For “ATTCTATATACACGCACACACACTTATATATATATA [CACACA_site3322]”, the “gcPBM binding intensity (ln)” value was 8.85.

Consider “TTATTATTATATGAATGTACTTAAAAATACATTTTG [XGTACX_site2959]”, for which the “gcPBM binding intensity (ln)” value was 5.92.

On to “CCCTTTTCTAAATATTGTACGTATAAATTATATTAC [XGTACX_site7676]”, for which the “gcPBM binding intensity (ln)” value is 6.87.

In the case of “AAAAAAAAAAGAAACACACACATTTGTATTTAATAT [CACACA_site5184]”, the “gcPBM binding intensity (ln)” value is 6.52.

Consider “GTGATTTAATTGTGTTGTACATATTTATAAATAAAA [XGTACX_site8966]”, for which the “gcPBM binding intensity (ln)” value was 6.67.

In the case of “ACACAATATATATATTGTACATACACATATTTACTA [XGTACX_site1872]”, the “gcPBM binding intensity (ln)” value was determined as 6.71.

Consider “TTTTTCTTGAATCGAAGTACTTAGGAGGGGATATTT [XGTACX_site2862]”, for which the “gcPBM binding intensity (ln)” value amounted to 6.94.

As to “GAAATGTATATTTTTACATGCAAATAAAATATATAA [TGCATGCA_site439]”, the “gcPBM binding intensity (ln)” value was determined as 6.57.

On to “CATACACATAGACACACACACATATATACCTATATA [CACACA_site6644]”, for which the “gcPBM binding intensity (ln)” value came out at 7.

Turning to “ATAACGACCTAGACGTGTACATACAAAGGAATGAAA [XGTACX_site4870]”, the “gcPBM binding intensity (ln)” value worked out at 6.54.

Consider “GAATATAAACATATTACACACATCTATAGGTACATT [CACACA_site6983]”, for which the “gcPBM binding intensity (ln)” value was 6.53.

“AGGACTAATATTTGAACACACATATAATATATACAT [CACACA_site3998]”: the “gcPBM binding intensity (ln)” value was 6.42.

“AATATATACATATATGTACACACATTACAGATGTAC [CACACA_site8227]”: the “gcPBM binding intensity (ln)” value stood at 6.67.

Turning to “ATAGAATCTGGTAGCTGTACGAGTCGTAGAGTGCAG [XGTACX_site2026]”, the “gcPBM binding intensity (ln)” value stood at 6.67.

As for “AAAAAAATATTATAATATATATATATATATATATAT [GTGCAC_negctrl_site399]”, the “gcPBM binding intensity (ln)” value was determined as 9.33.

Take “AGAGATTATAAAATATGTACTAAATATTAAATCTTA [XGTACX_site7050]”: the “gcPBM binding intensity (ln)” value was 5.91.

As to “ATTTTTTAAAAAGTAACACACACTCTTATAAATAAC [CACACA_site7668]”, the “gcPBM binding intensity (ln)” value came to 6.7.

“AAAGAAAGCACATACACACACAAAAAAAAAAAAGAA [CACACA_site776]”: the “gcPBM binding intensity (ln)” value was determined as 6.61.

“AAAGTAAAAATATACTGTACAAATTTTTTCCCCTCT [XGTACX_site171]”: the “gcPBM binding intensity (ln)” value came to 6.5.

As to “AAACAAAAAAAAAAAAAAAAAAAAAAAAAAAAAAAA [GTGCAC_negctrl_site254]”, the “gcPBM binding intensity (ln)” value was 6.1.

Regarding “GATGCACTTTAAAAATGTACTTATACCTTTAATTGT [XGTACX_site6395]”, the “gcPBM binding intensity (ln)” value amounted to 8.27.

As for “ATATTTATATACAAATGTACGCATATAATATATATA [XGTACX_site1232]”, the “gcPBM binding intensity (ln)” value was determined as 6.68.

“TAAAAAAAAAAAAATACACACACACCGATATATATA [CACACA_site8498]”: the “gcPBM binding intensity (ln)” value worked out at 6.89.

On to “TAAGTGCATGAGATATGTACATATATAAAATATATA [XGTACX_site3294]”, for which the “gcPBM binding intensity (ln)” value was found to be 9.2.

On to “AATAAAAACTAAACATGTACGCACATATATATATAT [XGTACX_site8096]”, for which the “gcPBM binding intensity (ln)” value was 9.42.

“TCATAGTCTTAATGACTACACACCTAACTATGCATG [CACACA_site1839]”: the “gcPBM binding intensity (ln)” value worked out at 6.28.

Turning to “ATATATATACATACATACCTATGTATATGTGTAATT [GTGCAC_negctrl_site50]”, the “gcPBM binding intensity (ln)” value came to 6.96.

Take “ATGGTAGTGATTAAAAGTACACGTAATTGTAAAAAT [XGTACX_site387]”: the “gcPBM binding intensity (ln)” value was determined as 6.75.

On to “TAAACAACTTATAAATGTACACATATTTTAATTACC [XGTACX_site5409]”, for which the “gcPBM binding intensity (ln)” value came to 6.51.

Regarding “ACCCAACATATGTGTACACAGAAAATAAATATAATA [CACACA_site5901]”, the “gcPBM binding intensity (ln)” value was determined as 7.31.

For the sequence “TTTTGTAATTCTCTTCATATAATTTATATATATATA [CACACA_negctrl_site1825]”, the “gcPBM binding intensity (ln)” value was 8.57.

Turning to “GTGTTTTTTTTAGATTGTACATATATATATATATAT [XGTACX_site4562]”, the “gcPBM binding intensity (ln)” value is 9.11.

Consider “TTTGTTTTTTCTTTTTGTACATATACAAGATACGTA [XGTACX_site2309]”, for which the “gcPBM binding intensity (ln)” value came to 6.75.

In the case of “GTATATATTCATATGGAAAATAAAGGAGAAAACAAG [TGCATGCA_negctrl_site220]”, the “gcPBM binding intensity (ln)” value turned out to be 7.38.

For the sequence “ATGTATGTATAATATACACACTCACAAGCATTCAAA [CACACA_site4306]”, the “gcPBM binding intensity (ln)” value is 6.75.

Take “ACAGATATACATAAAAAAAAAATAATTTTACATATA [CACACA_negctrl_site929]”: the “gcPBM binding intensity (ln)” value is 6.1.

For “AGCACAGACGGACACACACACATATATATATATATA [CACACA_site4341]”, the “gcPBM binding intensity (ln)” value came out at 9.38.

For the sequence “ATATATATGTATGTATGTACATATTTGAATTTATTT [XGTACX_site8470]”, the “gcPBM binding intensity (ln)” value stood at 6.66.

In the case of “TTCCATATAATTACATGTACACATTTTGAATAATAT [XGTACX_site3692]”, the “gcPBM binding intensity (ln)” value came to 6.98.

On to “ATAAACATATCAATATGTACATATTTTTGTTTGTAT [XGTACX_site7018]”, for which the “gcPBM binding intensity (ln)” value was determined as 6.28.

On to “TTATAATAGTTAAATGTACACACTAACTACATGGAA [CACACA_site9070]”, for which the “gcPBM binding intensity (ln)” value is 6.83.

Take “AAACCACAAAATTTTTTATATATGACCAATACATAG [CACACA_negctrl_site277]”: the “gcPBM binding intensity (ln)” value came out at 6.54.

“ATTTATCAATAAAATGCACACACTGTAATATTATTA [CACACA_site3976]”: the “gcPBM binding intensity (ln)” value is 9.96.

On to “ATTTGTTACACTAAATGTACATACATACATATATAT [XGTACX_site6175]”, for which the “gcPBM binding intensity (ln)” value turned out to be 6.98.

As for “TTATAAATTATAGGTACACACAAAAAAAAAAAGAAA [CACACA_site1327]”, the “gcPBM binding intensity (ln)” value stood at 6.73.

Regarding “TATAATATAAAAAAAAGTACACGAATTTTTTTTCAG [XGTACX_site6105]”, the “gcPBM binding intensity (ln)” value was 6.07.

Turning to “AAATAAATTTGACCAGTGCAATAACTTTGTATACCT [GTGCAC_site9446]”, the “gcPBM binding intensity (ln)” value turned out to be 9.24.

In the case of “ATCCAAAAGAAAAATAGTACAGATATGAACAATATG [XGTACX_site6944]”, the “gcPBM binding intensity (ln)” value turned out to be 6.48.

On to “ACAATATATTTTTGAGCATGCGCAAAAGAGAATGCA [TGCATGCA_site566]”, for which the “gcPBM binding intensity (ln)” value is 8.51.
